From the supplement of paper PMC9151546
Repeats are few or missing, and single values can be far off.

Key:
CHO-K1 [1] = assay: micronucleus frequency (% of nucleated events); higher = more micronuclei (genotoxic)
CHO-K1 [2] = assay: hypodiploid nuclei frequency (% of nucleated events); higher = more hypodiploid events (aneugenic)
CHO-K1 [3] = assay: relative survival (nuclei to bead ratio vs DMSO control) (% of vehicle control); higher = more surviving cells
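For hypodiploid nuclei frequency (% of nucleated events) in this document: hypodiploid nuclei gated on a flow cytometer with 488 nm excitation after SYTOX Green staining, cultures at 37 °C, positive controls vinblastine without S9 and cyclophosphamide with S9.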
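For micronucleus frequency (% of nucleated events) in this document: cells lysed with nuclei stained by SYTOX Green, then micronucleus-gated events counted against nucleated events by flow cytometry with 488 nm excitation.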
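For relative survival (nuclei to bead ratio vs DMSO control) in this document: Lysed-cell nuclei stained with SYTOX Green and counted against counting beads by flow cytometry at 488 nm excitation, with vinblastine (no S9) and cyclophosphamide (plus S9) as positive controls.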

N#Cc1c(Cl)c(Cl)c(Cl)c(C#N)c1Cl [Chlorothalonil]
Settings	hypodiploid nuclei frequency, CHO-K1 [2] [%]	micronucleus frequency, CHO-K1 [1] [%]	relative survival, CHO-K1 [3]
concentration: 0.108 (µM), S9 metabolic activation: with S9, exposure time: 3-4 hours	0.21	1.39	90.6
concentration: 0.108 (µM), S9 metabolic activation: without S9, exposure time: 24 hours	0.72	3.14	127
concentration: 0.135 (µM), S9 metabolic activation: with S9, exposure time: 3-4 hours	0.16	1.49	104
concentration: 0.135 (µM), S9 metabolic activation: without S9, exposure time: 24 hours	0.64	3.5	132
concentration: 0.169 (µM), S9 metabolic activation: with S9, exposure time: 3-4 hours	0.33	1.69	94.6
concentration: 0.169 (µM), S9 metabolic activation: without S9, exposure time: 24 hours	1.76	11.3	85
concentration: 0.211 (µM), S9 metabolic activation: with S9, exposure time: 3-4 hours	0.26	1.37	88.5
concentration: 0.211 (µM), S9 metabolic activation: without S9, exposure time: 24 hours	2	15.7	90.6
concentration: 0.264 (µM), S9 metabolic activation: with S9, exposure time: 3-4 hours	0.19	1.47	97
concentration: 0.264 (µM), S9 metabolic activation: without S9, exposure time: 24 hours	2.2	17.2	63.5
concentration: 0.33 (µM), S9 metabolic activation: with S9, exposure time: 3-4 hours	0.26	1.63	91.2
concentration: 0.33 (µM), S9 metabolic activation: without S9, exposure time: 24 hours	–	–	34.3
concentration: 0.412 (µM), S9 metabolic activation: with S9, exposure time: 3-4 hours	0.26	1.38	106
concentration: 0.412 (µM), S9 metabolic activation: without S9, exposure time: 24 hours	–	–	29.9
concentration: 0.515 (µM), S9 metabolic activation: with S9, exposure time: 3-4 hours	0.26	1.16	101
concentration: 0.515 (µM), S9 metabolic activation: without S9, exposure time: 24 hours	–	–	16.2
concentration: 0.644 (µM), S9 metabolic activation: with S9, exposure time: 3-4 hours	0.33	2.75	76.3
concentration: 0.644 (µM), S9 metabolic activation: without S9, exposure time: 24 hours	–	–	8.7
concentration: 0.805 (µM), S9 metabolic activation: with S9, exposure time: 3-4 hours	0.21	2.19	99.2
concentration: 0.805 (µM), S9 metabolic activation: without S9, exposure time: 24 hours	–	–	2.53
concentration: 1.01 (µM), S9 metabolic activation: with S9, exposure time: 3-4 hours	0.47	3.01	83.7
concentration: 1.01 (µM), S9 metabolic activation: without S9, exposure time: 24 hours	–	–	0.7
concentration: 1.08 (µM), S9 metabolic activation: with S9, exposure time: 3-4 hours	0.22	1.24	83
concentration: 1.08 (µM), S9 metabolic activation: without S9, exposure time: 24 hours	1.92	4.06	67.2
concentration: 1.26 (µM), S9 metabolic activation: with S9, exposure time: 3-4 hours	0.65	3.92	62.8
concentration: 1.26 (µM), S9 metabolic activation: without S9, exposure time: 24 hours	–	–	0.23
concentration: 1.35 (µM), S9 metabolic activation: with S9, exposure time: 3-4 hours	0.26	1.76	116
concentration: 1.35 (µM), S9 metabolic activation: without S9, exposure time: 24 hours	–	–	32.9
concentration: 1.57 (µM), S9 metabolic activation: with S9, exposure time: 3-4 hours	–	–	57.3
concentration: 1.57 (µM), S9 metabolic activation: without S9, exposure time: 24 hours	–	–	0.01
concentration: 1.69 (µM), S9 metabolic activation: with S9, exposure time: 3-4 hours	0.28	1.76	99.6
concentration: 1.69 (µM), S9 metabolic activation: without S9, exposure time: 24 hours	–	–	37.1
concentration: 1.97 (µM), S9 metabolic activation: with S9, exposure time: 3-4 hours	–	–	33.9
concentration: 1.97 (µM), S9 metabolic activation: without S9, exposure time: 24 hours	–	–	0.05
concentration: 2.11 (µM), S9 metabolic activation: with S9, exposure time: 3-4 hours	0.16	1.64	96.7
concentration: 2.11 (µM), S9 metabolic activation: without S9, exposure time: 24 hours	–	–	26.4
concentration: 2.46 (µM), S9 metabolic activation: with S9, exposure time: 3-4 hours	–	–	16.7
concentration: 2.46 (µM), S9 metabolic activation: without S9, exposure time: 24 hours	–	–	0.01
concentration: 2.6 (µM), S9 metabolic activation: with S9, exposure time: 3-4 hours	0.28	2.34	112
concentration: 2.6 (µM), S9 metabolic activation: without S9, exposure time: 24 hours	–	–	22.9
concentration: 3.07 (µM), S9 metabolic activation: with S9, exposure time: 3-4 hours	–	–	14.1
concentration: 3.07 (µM), S9 metabolic activation: without S9, exposure time: 24 hours	–	–	0.03
concentration: 3.3 (µM), S9 metabolic activation: with S9, exposure time: 3-4 hours	0.24	1.56	101
concentration: 3.3 (µM), S9 metabolic activation: without S9, exposure time: 24 hours	–	–	12.9
concentration: 3.84 (µM), S9 metabolic activation: with S9, exposure time: 3-4 hours	–	–	8.73
concentration: 3.84 (µM), S9 metabolic activation: without S9, exposure time: 24 hours	–	–	0.04
concentration: 4.1 (µM), S9 metabolic activation: with S9, exposure time: 3-4 hours	0.28	1.78	145
concentration: 4.1 (µM), S9 metabolic activation: without S9, exposure time: 24 hours	–	–	8.74
concentration: 4.8 (µM), S9 metabolic activation: with S9, exposure time: 3-4 hours	–	–	0.11
concentration: 4.8 (µM), S9 metabolic activation: without S9, exposure time: 24 hours	–	–	0.09
concentration: 5.2 (µM), S9 metabolic activation: with S9, exposure time: 3-4 hours	0.12	0.92	113
concentration: 5.2 (µM), S9 metabolic activation: without S9, exposure time: 24 hours	–	–	0.96
concentration: 6.4 (µM), S9 metabolic activation: with S9, exposure time: 3-4 hours	0.26	1.48	141
concentration: 8.1 (µM), S9 metabolic activation: with S9, exposure time: 3-4 hours	0.4	2.22	100
concentration: 10.1 (µM), S9 metabolic activation: with S9, exposure time: 3-4 hours	0.28	1.68	103
concentration: 12.6 (µM), S9 metabolic activation: with S9, exposure time: 3-4 hours	0.98	6.32	74.5
concentration: 15.7 (µM), S9 metabolic activation: with S9, exposure time: 3-4 hours	–	–	25
concentration: 19.7 (µM), S9 metabolic activation: with S9, exposure time: 3-4 hours	–	–	8.98
concentration: 25 (µM), S9 metabolic activation: with S9, exposure time: 3-4 hours	–	–	3.69
concentration: 31 (µM), S9 metabolic activation: with S9, exposure time: 3-4 hours	–	–	0.03
